Assay results reported in patent US20210230213A1, “ARAMCHOL SALTS” (GALMED RESEARCH AND DEVELOPMENT LTD., priority 2013, published 2021).

Settings: crude reaction mixture in water maintained 3 days

Molecule	Stability in water (HPLC) after 3 days
Diethanolamine	good
2-diethylamino-ethanol	good
CN(C)CCO [Deanol]	good
